Data taken from PubChem BioAssay (NCI).
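Assay format: 96-well plates, 48-hour exposure. TGI: concentration producing complete growth inhibition.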

Assays:
Experiment in all cases: DTP human tumour cell line panel, 48 h
KM12 colon = test system: KM12 colon
MDA-MB-435 = test system: MDA-MB-435
SR leukemia = test system: SR leukemia
SK-MEL-5 melanoma = test system: SK-MEL-5 melanoma
COLO 205 colon = test system: COLO 205 colon
K-562 leukemia = test system: K-562 leukemia
UACC-62 melanoma = test system: UACC-62 melanoma
LXFL 529 NSCLC = test system: LXFL 529 NSCLC
MOLT-4 leukemia = test system: MOLT-4 leukemia
MALME-3M melanoma = test system: MALME-3M melanoma
HCT-15 colon = test system: HCT-15 colon
EKVX NSCLC = test system: EKVX NSCLC
HS 578T breast = test system: HS 578T breast
HOP-62 NSCLC = test system: HOP-62 NSCLC
UO-31 renal = test system: UO-31 renal
CAKI-1 renal = test system: CAKI-1 renal
HCC-2998 colon = test system: HCC-2998 colon
M14 melanoma = test system: M14 melanoma
SNB-78 CNS = test system: SNB-78 CNS
SNB-19 CNS = test system: SNB-19 CNS
SF-268 CNS = test system: SF-268 CNS
DU-145 prostate = test system: DU-145 prostate
U251 CNS = test system: U251 CNS
CCRF-CEM leukemia = test system: CCRF-CEM leukemia
RPMI-8226 leukemia = test system: RPMI-8226 leukemia
SF-295 CNS = test system: SF-295 CNS
PC-3 prostate = test system: PC-3 prostate
HCT-116 colon = test system: HCT-116 colon
XF 498 CNS = test system: XF 498 CNS
HT29 colon = test system: HT29 colon
DLD-1 colon = test system: DLD-1 colon
HOP-18 NSCLC = test system: HOP-18 NSCLC
SNB-75 CNS = test system: SNB-75 CNS
OVCAR-8 ovarian = test system: OVCAR-8 ovarian
BT-549 breast = test system: BT-549 breast
SN12C renal = test system: SN12C renal
DMS 114 small cell lung = test system: DMS 114 small cell lung
MDA-N = test system: MDA-N
NCI-H522 lung = test system: NCI-H522 lung
DMS 273 small cell lung = test system: DMS 273 small cell lung
MCF7 breast = test system: MCF7 breast
SK-OV-3 ovarian = test system: SK-OV-3 ovarian
T-47D breast = test system: T-47D breast
NCI-H460 lung = test system: NCI-H460 lung
SF-539 CNS = test system: SF-539 CNS
OVCAR-3 ovarian = test system: OVCAR-3 ovarian
OVCAR-5 ovarian = test system: OVCAR-5 ovarian
SK-MEL-2 melanoma = test system: SK-MEL-2 melanoma
TK-10 renal = test system: TK-10 renal
SW-620 colon = test system: SW-620 colon
A498 renal = test system: A498 renal
HL-60(TB) leukemia = test system: HL-60(TB) leukemia
A549 NSCLC = test system: A549 NSCLC
OVCAR-4 ovarian = test system: OVCAR-4 ovarian
UACC-257 melanoma = test system: UACC-257 melanoma
NCI/ADR-RES ovarian = test system: NCI/ADR-RES ovarian
RXF 393 renal = test system: RXF 393 renal
SK-MEL-28 melanoma = test system: SK-MEL-28 melanoma
NCI-H226 lung = test system: NCI-H226 lung
IGROV1 ovarian = test system: IGROV1 ovarian
ACHN renal = test system: ACHN renal
HOP-92 NSCLC = test system: HOP-92 NSCLC
LOX IMVI melanoma = test system: LOX IMVI melanoma
M19-MEL melanoma = test system: M19-MEL melanoma
MDA-MB-231 breast = test system: MDA-MB-231 breast
NCI-H23 lung = test system: NCI-H23 lung
786-0 renal = test system: 786-0 renal

Compound `CCOC(=O)NC1CCc2cc(OC)c(OC)c(OC)c2-c2ccc(OC)c(=O)cc21` (configuration not stated) has a TGI (KM12 colon) of 0.151 µM, a TGI (MDA-MB-435) of 0.0294 µM and a TGI (SR leukemia) of 33 µM. For the same compound, the TGI (SK-MEL-5 melanoma) was 0.209 µM, the TGI (COLO 205 colon) was 0.0268 µM and the TGI (K-562 leukemia) was 90.6 µM. For the same compound, the TGI (UACC-62 melanoma) was 78.4 µM, the TGI (LXFL 529 NSCLC) was over 100 µM and the TGI (MOLT-4 leukemia) was 87.3 µM. It also gave a TGI (MALME-3M melanoma) of 93.2 µM, a TGI (HCT-15 colon) of 20.3 µM and a TGI (EKVX NSCLC) of over 100 µM. The TGI (HS 578T breast) was 4.64 µM, the TGI (HOP-62 NSCLC) was 85.8 µM and the TGI (UO-31 renal) was over 100 µM. The TGI (CAKI-1 renal) was 96.5 µM, the TGI (HCC-2998 colon) was 21.5 µM and the TGI (M14 melanoma) was 17.5 µM. The TGI (SNB-78 CNS) was over 100 µM, the TGI (SNB-19 CNS) was 10.4 µM and the TGI (SF-268 CNS) was over 100 µM. The TGI (DU-145 prostate) was 0.755 µM, the TGI (U251 CNS) was 3.69 µM and the TGI (CCRF-CEM leukemia) was 88.1 µM. It also gave a TGI (RPMI-8226 leukemia) of 57 µM, a TGI (SF-295 CNS) of 0.0501 µM and a TGI (PC-3 prostate) of over 100 µM. For the same compound, the TGI (HCT-116 colon) was 0.555 µM, the TGI (XF 498 CNS) was over 100 µM and the TGI (HT29 colon) was 0.15 µM. For the same compound, the TGI (DLD-1 colon) was over 100 µM, the TGI (HOP-18 NSCLC) was over 100 µM and the TGI (SNB-75 CNS) was 15.8 µM. For the same compound, the TGI (OVCAR-8 ovarian) was 31.6 µM, the TGI (BT-549 breast) was 1.97 µM and the TGI (SN12C renal) was 95.5 µM. The TGI (DMS 114 small cell lung) was 0.0156 µM, the TGI (MDA-N) was 0.0426 µM and the TGI (NCI-H522 lung) was 0.0329 µM. It also gave a TGI (DMS 273 small cell lung) of over 100 µM, a TGI (MCF7 breast) of 90.8 µM and a TGI (SK-OV-3 ovarian) of 5.51 µM. For the same compound, the TGI (T-47D breast) was over 100 µM, the TGI (NCI-H460 lung) was 17.5 µM and the TGI (SF-539 CNS) was 0.0312 µM. The TGI (OVCAR-3 ovarian) was 0.0911 µM, the TGI (OVCAR-5 ovarian) was over 100 µM and the TGI (SK-MEL-2 melanoma) was 2.19 µM. For the same compound, the TGI (TK-10 renal) was 90.3 µM, the TGI (SW-620 colon) was over 100 µM and the TGI (A498 renal) was 20.6 µM. It also gave a TGI (HL-60(TB) leukemia) of 0.0296 µM, a TGI (A549 NSCLC) of over 100 µM and a TGI (OVCAR-4 ovarian) of over 100 µM. The TGI (UACC-257 melanoma) was over 100 µM, the TGI (NCI/ADR-RES ovarian) was 1.57 µM and the TGI (RXF 393 renal) was 19.1 µM. It also gave a TGI (SK-MEL-28 melanoma) of over 100 µM, a TGI (NCI-H226 lung) of 1.13 µM and a TGI (IGROV1 ovarian) of over 100 µM. It also gave a TGI (ACHN renal) of over 100 µM, a TGI (HOP-92 NSCLC) of 7.82 µM and a TGI (LOX IMVI melanoma) of over 100 µM. For the same compound, the TGI (M19-MEL melanoma) was over 100 µM, the TGI (MDA-MB-231 breast) was 27.5 µM and the TGI (NCI-H23 lung) was 1.04 µM. It also gave a TGI (786-0 renal) of over 100 µM.
